# In all, about 33,000 sequences were measured (“E-score (-0.5 to 0.5)”: median about -0.043, highest 2% from about 0.37 on). The list shows a part of the results.
# Molecular target: T1, Upc2 (UniProt Q12151)
# T1 sequence: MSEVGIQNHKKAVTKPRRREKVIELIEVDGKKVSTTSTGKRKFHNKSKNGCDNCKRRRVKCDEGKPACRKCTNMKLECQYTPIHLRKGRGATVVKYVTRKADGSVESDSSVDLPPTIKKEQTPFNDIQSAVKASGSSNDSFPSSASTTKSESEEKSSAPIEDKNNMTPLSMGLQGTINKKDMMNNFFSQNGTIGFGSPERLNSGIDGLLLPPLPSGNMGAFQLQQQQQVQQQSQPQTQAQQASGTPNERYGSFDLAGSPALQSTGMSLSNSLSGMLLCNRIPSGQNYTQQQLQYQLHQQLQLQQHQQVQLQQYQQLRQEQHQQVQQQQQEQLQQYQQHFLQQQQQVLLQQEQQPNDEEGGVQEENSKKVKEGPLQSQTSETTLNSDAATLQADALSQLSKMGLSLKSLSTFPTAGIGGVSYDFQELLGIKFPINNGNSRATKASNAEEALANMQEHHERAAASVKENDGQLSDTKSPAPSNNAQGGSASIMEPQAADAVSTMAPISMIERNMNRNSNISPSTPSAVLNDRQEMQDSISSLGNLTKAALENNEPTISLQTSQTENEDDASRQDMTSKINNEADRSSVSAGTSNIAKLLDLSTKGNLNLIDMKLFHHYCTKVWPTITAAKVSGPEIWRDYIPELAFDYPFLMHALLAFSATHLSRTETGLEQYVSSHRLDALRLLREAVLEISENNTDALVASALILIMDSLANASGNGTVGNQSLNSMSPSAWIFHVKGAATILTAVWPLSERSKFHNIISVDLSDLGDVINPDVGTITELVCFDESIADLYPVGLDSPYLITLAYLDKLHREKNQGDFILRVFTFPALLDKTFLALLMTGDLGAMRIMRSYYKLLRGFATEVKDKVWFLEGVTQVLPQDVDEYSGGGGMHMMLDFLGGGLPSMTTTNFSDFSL
# Experiment: PBM E-score (8-mer binding enrichment) (E-score (-0.5 to 0.5)); higher = stronger / more preferred TF binding; most listed sequences are background and not binding sites
# Details: protein concentration: 200 nM; construct: GST-full length
# Protocol: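 Universal 'all 10-mer' protein binding microarrays (Agilent AMADID 015681) probed with GST-tagged S. cerevisiae TFs (full-length or DBD) made by in vitro transcription/translation (PURExpress), about 100-200 nM. Bound TF was detected with fluorescent anti-GST. Each ungapped 8-mer (which stands for itself and its reverse complement) is scored by the PBM enrichment score (E-score), a modified Wilcoxon-Mann-Whitney statistic from -0.5 to +0.5, computed with the Universal PBM Analysis Suite. Scale: above 0.35 generally sequence-specific binding.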
row,Sequence,PBM E-score
1,CTTGACCA,-0.331
2,CGCGTTGC,0.0892
3,ATGGCACC,-0.113
4,CGGGTGCC,-0.134
5,AAAAAGAT,-0.0855
6,CTCCCCGC,0.0534
7,AGGAAGTA,-0.191
8,AACATGCG,0.108
9,CCTAACGA,0.274
10,GTTCCGTA,0.357
11,ACTAGAAG,-0.291
12,AGGATGCG,0.134
13,CGGCTAAA,0.132
14,GACGCGTC,0.0619
15,AAACACTA,0.0978
16,GTATACCA,0.191
17,AAAAGGGA,-0.2
18,CCCCGAGG,-0.22
19,CGGTTAGA,0.271
20,AACGCCCG,0.0967
21,CATGAAGC,-0.201
22,ACATTGCA,-0.0401
23,ACGTTCTG,0.106
24,ATCCGCAT,0.0894

row,Sequence,PBM E-score
1,CTAGAACC,-0.0215
2,GGGCCGAA,-0.135
3,AAACTTGT,0.118
4,CGATCTCA,-0.111
5,GGCTCCAC,-0.29
6,GCGAGGAA,0.155
7,TATGTTGA,0.0157
8,CCAGGACA,-0.262
9,GACGTCCA,-0.163
10,GATGGTCC,-0.143
11,ACGCAATA,0.185
12,GCTCGAAC,0.0884
13,AGTCAAGG,-0.208
14,ACACTTAC,0.0914
15,GTCCAAAC,-0.065
16,AACAGAGG,-0.266
17,ACTCACAC,-0.1
18,ATAAAGCG,0.205
19,AGTTCGCG,0.0516
20,AAGCAACA,-0.21
21,CAGGGTGC,-0.287
22,CCGTCCGC,-0.19
23,GATGAGAA,-0.0646
24,GTACCATA,0.15

row,Sequence,PBM E-score
1,AGAGGTTG,-0.254
2,AAATAGAC,-0.00717
3,CGTACGTC,0.338
4,AAAACCGT,0.0566
5,AATCGGAA,-0.05
6,AGCTTCCT,0.00311
7,GGGGAGGA,-0.196
8,CTTCTACA,-0.0885
9,CGCCAACA,-0.147
10,CTTGTAAA,0.0742
11,GCAGGGAA,-0.0974
12,AGGACCCG,-0.17
13,ATTTCGTG,0.0688
14,GAACCTTA,-0.0824
15,AGTAATGG,0.00713
16,ATGGTTGG,-0.0863
17,GGGTTCAC,-0.0173
18,ATGCTGTA,0.097
19,GAGTATCC,-0.0664
20,CATAGACC,-0.014
21,GGGATCTA,-0.117
22,CTAACAGC,-0.0732
23,TCGTCCCA,-0.114
24,ATAGCCGA,-0.0218

row,Sequence,PBM E-score
1,AACGCAGT,0.196
2,ATTTGTAA,-0.102
3,CAGCCCTA,-0.15
4,AATATATA,0.134
5,ACCACCAA,-0.239
6,ATGTGAAA,-0.0856
7,CTCAGTGA,-0.234
8,AAGTGCTC,-0.223
9,GCTGTAGA,-0.289
10,ACAATTCT,-0.0471
11,ATGATCAG,-0.0343
12,GAGTATCA,0.0308
13,TCGCATCA,0.209
14,CAGTAGTA,0.0376
15,AATTGTAA,-0.0647
16,ACAGGGAA,-0.189
17,AGCCCAGC,0.0669
18,TGTTACAA,0.0136
19,GTACTCGA,0.0705
20,GAGATCTA,-0.00428
21,CATATGAA,-0.0314
22,AGCTAATC,-0.0679
